{
  "source": "PubChem BioAssay AID2675",
  "about": "(National Center for Advancing Translational Sciences (NCATS), 2010)",
  "note": "About 100 (0.036%) of roughly 280,000 compounds were called active. The inconclusive results got no clear call from the source; some entries with a clear call stand among them for comparison. Calls come from the whole dose curve; as a rule, active = well fitted inhibition curve with a large enough effect in the signal ratio, with a control signal flat (not every such curve was filed as active); inconclusive = small, poorly fitted or top-dose-only effect, or effect the other way, or a change in a side signal; inactive = no such curve, though single readings can be large or run the other way; the % refers to the signal ratio. Where the call is inconclusive, the potency comes from a doubtful curve fit. “Side channel” marks fits to a control or component signal instead of the main read-out. Potency is the fitted concentration of half-maximal effect; tags give direction and shape of the fitted curve or compound fluorescence and quenching.",
  "data": [
    {"biological_target": "Muscleblind-like protein 1 (Homo sapiens) (UniProt Q9NR56)", "sequence (Q9NR56 whole entry, looked up)": "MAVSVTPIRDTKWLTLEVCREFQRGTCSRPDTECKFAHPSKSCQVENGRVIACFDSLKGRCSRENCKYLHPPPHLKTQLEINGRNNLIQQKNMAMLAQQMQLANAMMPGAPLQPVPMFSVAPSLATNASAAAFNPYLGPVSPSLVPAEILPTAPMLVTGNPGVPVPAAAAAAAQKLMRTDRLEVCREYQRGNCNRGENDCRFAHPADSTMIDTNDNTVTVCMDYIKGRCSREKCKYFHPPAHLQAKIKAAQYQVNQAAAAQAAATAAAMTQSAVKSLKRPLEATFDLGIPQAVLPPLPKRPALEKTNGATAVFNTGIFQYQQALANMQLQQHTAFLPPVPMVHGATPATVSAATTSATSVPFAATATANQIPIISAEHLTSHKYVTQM", "experiment": "qHTS Assay for Inhibitors of MBNL1-poly(CUG) RNA binding", "details": "TR-FRET MBNL1-His/biotin-(CUG)12 binding, 665/545 ratio; series mostly up to 57.5 µM", "procedure,_shortened": "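TR-FRET readout: Ex 340 nm, 665/545 nm emission ratio, normalized to buffer-only (basal) and MBNL1-(CUG)12 controls. Complex of MBNL1-His with Biotin-(CUG)12, compounds 92 nM–58 uM, incubated 60 min at room temperature.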", "values": [
      {"smiles": "COc1ccc(CC(=O)Nc2cccc(-c3nnc(-c4cccc(C)c4)o3)c2)cc1OC", "Potency": "inactive"},
      {"smiles": "COc1ccc(C)cc1NC(=O)COC(=O)c1ccc([N+](=O)[O-])o1", "Potency": "inconclusive: 28.2 µM [quencher, side channel, single point]"},
      {"smiles": "COC(=O)c1cc(C(=O)OCC(=O)NC2CCS(=O)(=O)C2)cc([N+](=O)[O-])c1", "note": "(configuration not stated)", "Potency": "inconclusive: 15.8 µM [quencher, side channel, partial curve]"},
      {"smiles": "CCn1c(=O)c(=O)[nH]c2c(=O)oc3ccc(S(=O)(=O)Nc4ccc(OC)cc4)cc3c21", "Potency": "inconclusive: 14.1 µM [quencher, side channel, partial curve]"},
      {"smiles": "CCOC(=O)C1CCCN(CCC(=O)Nc2ccc(Br)cc2)C1", "note": "(configuration not stated)", "Potency": "inactive"},
      {"smiles": "O=[N+]([O-])c1ccc(C[n+]2cc(-c3ccccc3)n3c2CCCCC3)cc1", "Potency": "inconclusive: 14.1 µM [quencher, side channel, partial curve]"},
      {"smiles": "CN1C(=O)c2cccc3c(Cl)ccc(c23)C1=O", "Potency": "inactive"},
      {"smiles": "COC(=O)c1cc(C(=O)c2ccc(C(C)(C)C)cc2)c[nH]1", "Potency": "inactive"},
      {"smiles": "CCCC(=O)c1cc2ccccc2oc1=O", "Potency": "inconclusive: 10 µM [quencher, partial curve]"},
      {"smiles": "Cc1oc(=O)c(NC(=O)c2ccccc2)cc1C(C)O", "note": "(configuration not stated)", "Potency": "inconclusive: 25.1 µM [quencher, side channel, partial curve]"},
      {"smiles": "Cc1ccc(/C=N/NC(=O)Cc2cccn2C)s1", "Potency": "inconclusive: 15.8 µM [quencher, side channel, partial curve]"},
      {"smiles": "COCCNC(=O)CSc1nnc(CCCN2C(=O)c3cccc4cccc(c34)C2=O)n1-c1ccccc1", "Potency": "inconclusive: 12.6 µM [quencher, side channel, partial curve]"},
      {"smiles": "CCOc1ccc(C2C([N+](=O)[O-])=C(C)N(C)C(=O)N2C)cc1OC", "note": "(configuration not stated)", "Potency": "inconclusive: 22.4 µM [quencher, side channel, partial curve, poor fit]"},
      {"smiles": "C=CCn1c(SCc2ccc([N+](=O)[O-])cc2)nnc1C(C)NC(=O)c1ccccc1", "note": "(configuration not stated)", "Potency": "inconclusive: 14.1 µM [quencher, side channel, partial curve]"},
      {"smiles": "CCc1c(C)sc(NC(=O)c2cc(C3CC3)on2)c1C#N", "Potency": "inactive"},
      {"smiles": "CC(=O)c1cccc(NC(=O)C2CCCN2S(=O)(=O)c2cccc3nsnc23)c1", "note": "(configuration not stated)", "Potency": "inconclusive: 12.6 µM [quencher, side channel, partial curve]"},
      {"smiles": "C[C@@H](NC(=O)c1coc(=O)c(Br)c1)c1ccccc1", "Potency": "inconclusive: 7.08 µM [quencher, side channel, partial curve, poor fit]"}
    ]}
  ]
}
